The full ranking holds about 2,900 compounds; the median of “NF-kB SEAP reporter activity, fold change vs agonist alone” is about 0.99, and the highest 2% start at about 2.6. The list shows a part of the results.

Experimental findings from the supplement of paper PMC10037445 are described below.

Assay [1] has as its system RAW-Dual. Put plainly: NF-kB SEAP reporter activity, fold change vs agonist alone; cytotoxicity flag (confluency mask): not cytotoxic; higher = enhanced NF-kB activity. A digest of the protocol:
(§1)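 RAW-Dual macrophages (50,000 cells/well in DMEM, 384-well plates) received 50 nL of library stock by pin tool, then a PRR agonist 1 h later, and were kept at 37 °C, 5% CO2. After 20 hours, supernatant was read for IRF by QuantiLuc luminescence and for NF-κB by QuantiBlue absorbance at 620 nm. Reporter activity is fold change over agonist-alone wells. Cytotoxic wells had IncuCyte confluency below 70% of agonist controls in both mask sets.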

Assay [2] relates to RAW-Dual. Put plainly: NF-kB SEAP reporter activity, fold change vs agonist alone; higher = enhanced NF-kB activity. The following applies: library stock concentration (final ~1000-fold dilution): 10 mM. A digest of the protocol: as §1
Assay [3] relates to RAW-Dual. Briefly: NF-kB SEAP reporter activity, fold change vs agonist alone; cytotoxicity flag (confluency mask): cytotoxic (confluency <70% of control); higher = enhanced NF-kB activity. A digest of the protocol: as §1
Where [4] appears, read: agonist: ODN 1826 (TLR9) 0.5 ug/mL.
Setting [5] is: agonist: Pam2CSK4 (TLR2/6) 0.1 ug/mL.
The mark [6] stands for this setting: agonist: Pam3CSK4 (TLR2/1) 0.1 ug/mL.
Setting [7] is: cytotoxicity flag (confluency mask): not cytotoxic, agonist: Imiquimod (TLR7) […].
Where [8] appears, read: cytotoxicity flag (confluency mask): not cytotoxic, agonist: MPLA (TLR4) […].

Take `O=C(CNc1ccc2ccccc2c1)N/N=C/c1cc(Br)c(O)c(Br)c1O` (library stock concentration (final ~1000-fold dilution): 10 mM): the “NF-kB SEAP reporter activity” value was 1.02 with RAW-Dual [1] (agonist: LPS (TLR4) 0.1 ug/mL), 0.608 with RAW-Dual [1] (setting [4]), 0.591 in the assay with RAW-Dual [1] (setting [5]) and 0.439 with RAW-Dual [1] (setting [6]).

Take `O=C(CNc1ccc2ccccc2c1)N/N=C/c1cc(Br)c(O)c(Br)c1O`: the “NF-kB SEAP reporter activity” value was determined as 0.809 in the assay with RAW-Dual [2] (setting [7]) and 1.09 in the assay on RAW-Dual [2] (setting [8]).

Regarding `CC(C)=CCCC(C)(OC1OC(CO)C(O)C(O)C1O)C1CCC2(C)C1C(O)CC1C3(C)CCC(O)C(C)(C)C3C(OC3OC(CO)C(O)C(O)C3OC3OCC(O)C(O)C3O)CC12C` (stereo not drawn), the “NF-kB SEAP reporter activity” value in the assay with RAW-Dual [2] (setting [7]) was 0.818; in the assay with RAW-Dual [2] (setting [8]), 0.958.

For `CC(C)=CCCC(C)(OC1OC(CO)C(O)C(O)C1O)C1CCC2(C)C1C(O)CC1C3(C)CCC(O)C(C)(C)C3C(OC3OC(CO)C(O)C(O)C3OC3OCC(O)C(O)C3O)CC12C` (stereo not drawn) (library stock concentration (final ~1000-fold dilution): 10 mM), the “NF-kB SEAP reporter activity” value in the assay with RAW-Dual [1] (agonist: LPS (TLR4) 0.1 ug/mL) was determined as 0.93; in the assay with RAW-Dual [1] (setting [4]), 1.02; in the assay on RAW-Dual [1] (setting [5]), 0.792; in the assay with RAW-Dual [1] (setting [6]), 0.975.

With `CCN(CC)Cc1ccc2cc(COC(=O)Nc3ccc(C(=O)NO)cc3)ccc2c1.Cl.O` (library stock concentration (final ~1000-fold dilution): 10 mM), the “NF-kB SEAP reporter activity” value turned out to be 7.02 in the assay with RAW-Dual [1] (agonist: LPS (TLR4) 0.1 ug/mL), 0.922 in the assay with RAW-Dual [1] (setting [4]), 1.87 with RAW-Dual [1] (setting [5]) and 1.04 in the assay on RAW-Dual [1] (setting [6]).

In the case of `CCN(CC)Cc1ccc2cc(COC(=O)Nc3ccc(C(=O)NO)cc3)ccc2c1.Cl.O`, the figures for the “NF-kB SEAP reporter activity” value in the assay with RAW-Dual [2] (setting [7]) and in the assay with RAW-Dual [2] (setting [8]) were 0.805 and 1.17, respectively.

Regarding `O=C(C(Cc1cccc(C(F)(F)F)c1)NS(=O)(=O)c1cc(F)c2c(c1)CCNC2)N1CCCC1` (stereo not drawn), the “NF-kB SEAP reporter activity” value in the assay on RAW-Dual [2] (setting [7]) worked out at 0.965; with RAW-Dual [2] (setting [8]), 1.07.

Turning to `O=C(C(Cc1cccc(C(F)(F)F)c1)NS(=O)(=O)c1cc(F)c2c(c1)CCNC2)N1CCCC1` (stereo not drawn) (library stock concentration (final ~1000-fold dilution): 10 mM), the “NF-kB SEAP reporter activity” value with RAW-Dual [1] (agonist: LPS (TLR4) 0.1 ug/mL) worked out at 1.01; in the assay with RAW-Dual [1] (setting [4]), 0.731; in the assay with RAW-Dual [1] (setting [5]), 0.96; in the assay with RAW-Dual [1] (setting [6]), 0.795.

With `CNC(=O)C(NC(=O)C(CC(C)C)C(O)C(=O)NO)C(C)(C)C` (stereo not drawn), the entries for the “NF-kB SEAP reporter activity” value in the assay with RAW-Dual [2] (setting [7]) and in the assay on RAW-Dual [2] (setting [8]) were 1.08 and 1.38, respectively.

For the compound `CNC(=O)C(NC(=O)C(CC(C)C)C(O)C(=O)NO)C(C)(C)C` (stereo not drawn) (library stock concentration (final ~1000-fold dilution): 10 mM), the “NF-kB SEAP reporter activity” value with RAW-Dual [1] (agonist: LPS (TLR4) 0.1 ug/mL) came to 1.09; with RAW-Dual [1] (setting [4]), 1.01; in the assay with RAW-Dual [1] (setting [5]), 1.04; in the assay with RAW-Dual [1] (setting [6]), 1.01.

Regarding `CCOC(=O)C(CCc1ccccc1)NC(C)C(=O)N1C(=O)N(C)CC1C(=O)O.Cl` (stereo not drawn), the figures for the “NF-kB SEAP reporter activity” value in the assay with RAW-Dual [2] (setting [7]) and in the assay on RAW-Dual [2] (setting [8]) were 0.962 and 0.927, respectively.

With `CCOC(=O)C(CCc1ccccc1)NC(C)C(=O)N1C(=O)N(C)CC1C(=O)O.Cl` (stereo not drawn) (library stock concentration (final ~1000-fold dilution): 10 mM), the “NF-kB SEAP reporter activity” value was found to be 1.2 with RAW-Dual [1] (agonist: LPS (TLR4) 0.1 ug/mL), 0.98 with RAW-Dual [1] (setting [4]), 0.83 with RAW-Dual [1] (setting [5]) and 1.03 in the assay on RAW-Dual [1] (setting [6]).

Turning to `CC(C)NCC(O)COc1cccc2[nH]c3ccccc3c12` (stereo not drawn), the “NF-kB SEAP reporter activity” value turned out to be 0.895 in the assay on RAW-Dual [2] (setting [7]) and 0.982 in the assay with RAW-Dual [2] (setting [8]).

Consider `CC(C)NCC(O)COc1cccc2[nH]c3ccccc3c12` (stereo not drawn) (library stock concentration (final ~1000-fold dilution): 10 mM), for which the “NF-kB SEAP reporter activity” value was 1.12 with RAW-Dual [1] (agonist: LPS (TLR4) 0.1 ug/mL), 0.921 in the assay with RAW-Dual [1] (setting [4]), 0.951 with RAW-Dual [1] (setting [5]) and 1.02 in the assay with RAW-Dual [1] (setting [6]).

In the case of `Cn1c(=O)cc(N2CCCC(N)C2)n(Cc2cc(F)ccc2C#N)c1=O` (stereo not drawn), the “NF-kB SEAP reporter activity” value with RAW-Dual [2] (setting [7]) came out at 0.999; in the assay on RAW-Dual [2] (setting [8]), 0.869.

As for `Cn1c(=O)cc(N2CCCC(N)C2)n(Cc2cc(F)ccc2C#N)c1=O` (stereo not drawn) (library stock concentration (final ~1000-fold dilution): 10 mM), the “NF-kB SEAP reporter activity” value in the assay on RAW-Dual [1] (agonist: LPS (TLR4) 0.1 ug/mL) is 0.833; in the assay with RAW-Dual [1] (setting [4]) it was 0.842; in the assay with RAW-Dual [1] (setting [5]), 0.83; in the assay with RAW-Dual [1] (setting [6]) it was 1.03.

With `CC(=O)/C(C)=N/O` (library stock concentration (final ~1000-fold dilution): 10 mM), the “NF-kB SEAP reporter activity” value with RAW-Dual [1] (agonist: LPS (TLR4) 0.1 ug/mL) was 0.735; in the assay with RAW-Dual [1] (setting [4]), 0.976; with RAW-Dual [1] (setting [5]) it was 0.997; with RAW-Dual [1] (setting [6]) it was 1.05.

Consider `CC(=O)/C(C)=N/O`, for which the “NF-kB SEAP reporter activity” value in the assay on RAW-Dual [2] (setting [7]) was 0.917; in the assay on RAW-Dual [2] (setting [8]), 1.03.

`Cl.Cl.O=c1cc(CN2CCOCC2)occ1OCCCCCSc1ccnc2cc(C(F)(F)F)ccc12` (library stock concentration (final ~1000-fold dilution): 10 mM): the “NF-kB SEAP reporter activity” value with RAW-Dual [3] (agonist: LPS (TLR4) 0.1 ug/mL) stood at 0.81; in the assay on RAW-Dual [3] (setting [4]), 0.603; in the assay with RAW-Dual [3] (setting [5]), 0.59; in the assay on RAW-Dual [3] (setting [6]) it was 0.529.

As to `Cl.Cl.O=c1cc(CN2CCOCC2)occ1OCCCCCSc1ccnc2cc(C(F)(F)F)ccc12`, the “NF-kB SEAP reporter activity” value came out at 0.953 in the assay on RAW-Dual [2] (cytotoxicity flag (confluency mask): cytotoxic (confluency <70% of control), agonist: Imiquimod (TLR7) […]) and 0.895 with RAW-Dual [2] (cytotoxicity flag (confluency mask): cytotoxic (confluency <70% of control), agonist: MPLA (TLR4) […]).

For the compound `Cc1cc(C)nc(SCC(=O)Nc2ncc(Cc3cccc4ccccc34)s2)n1` (library stock concentration (final ~1000-fold dilution): 10 mM), the “NF-kB SEAP reporter activity” value with RAW-Dual [1] (agonist: LPS (TLR4) 0.1 ug/mL) is 0.929; with RAW-Dual [1] (setting [4]), 0.579; in the assay with RAW-Dual [1] (setting [5]), 0.859; in the assay with RAW-Dual [1] (setting [6]), 0.829.

As for `Cc1cc(C)nc(SCC(=O)Nc2ncc(Cc3cccc4ccccc34)s2)n1`, the “NF-kB SEAP reporter activity” value with RAW-Dual [2] (setting [7]) was 0.608; with RAW-Dual [2] (setting [8]), 0.875.

Turning to `C#CCC(Cc1cnc2nc(N)nc(N)c2n1)c1ccc(C(=O)NC(CCC(=O)O)C(=O)O)cc1` (stereo not drawn), the “NF-kB SEAP reporter activity” value was 0.83 with RAW-Dual [2] (setting [7]) and 0.846 with RAW-Dual [2] (setting [8]).

In the case of `C#CCC(Cc1cnc2nc(N)nc(N)c2n1)c1ccc(C(=O)NC(CCC(=O)O)C(=O)O)cc1` (stereo not drawn) (library stock concentration (final ~1000-fold dilution): 10 mM), the “NF-kB SEAP reporter activity” value amounted to 0.896 in the assay with RAW-Dual [1] (agonist: LPS (TLR4) 0.1 ug/mL), 1.02 in the assay on RAW-Dual [1] (setting [4]), 0.698 in the assay with RAW-Dual [1] (setting [5]) and 0.743 with RAW-Dual [1] (setting [6]).

In the case of `O=C(O)CCCCC1CCSS1` (stereo not drawn) (library stock concentration (final ~1000-fold dilution): 10 mM), the “NF-kB SEAP reporter activity” value amounted to 0.812 in the assay on RAW-Dual [1] (agonist: LPS (TLR4) 0.1 ug/mL), 0.944 in the assay with RAW-Dual [1] (setting [4]), 0.625 in the assay with RAW-Dual [1] (setting [5]) and 0.795 with RAW-Dual [1] (setting [6]).

In the case of `O=C(O)CCCCC1CCSS1` (stereo not drawn), the “NF-kB SEAP reporter activity” value in the assay on RAW-Dual [2] (setting [7]) is 1.2; with RAW-Dual [2] (setting [8]) it was 1.39.
